The antibiotic and cytotoxicity screens of Wong et al. (2023)
The list shows a part of the results.

Tests used:
HSkMC = human skeletal muscle cells; assay: cytotoxicity call (relative viability < 0.9); conditions: 10 µM
HepG2 = assay: cytotoxicity call (relative viability < 0.9); conditions: 10 µM
S. aureus RN4220 = assay: growth inhibition call (relative growth <= 0.2); conditions: 50 µM

Row | Structure (SMILES) | cytotoxicity call (HSkMC) | cytotoxicity call (HepG2) | growth inhibition call (S. aureus RN4220)
1 | C[C@H]1CN([C@@H](C)CO)S(=O)(=O)c2ccc(C#CC3(O)CCCC3)cc2O[C@@H]1CN(C)C(=O)Cc1ccccc1 | inactive | inactive | inactive
2 | Cc1nccnc1N1CCCCC1.O=S(=O)(O)O | inactive | inactive | inactive
3 | Cc1ccc(S(=O)(=O)Nc2ccc3c(c2)C(=O)N([C@H](C)CO)C[C@@H](C)[C@@H](CN(C)Cc2ccc(C(=O)O)cc2)OCCCC[C@H](C)O3)cc1 | inactive | inactive | inactive
4 | FC(F)Oc1cccc2cccnc12 | inactive | inactive | inactive
5 | C[C@@H]1CN([C@@H](C)CO)C(=O)c2cc(NC(=O)Nc3ccccc3)ccc2O[C@@H](C)CCCCO[C@H]1CN(C)C(=O)Nc1ccc(C(F)(F)F)cc1 | inactive | inactive | inactive
6 | COc1ccc(S(=O)(=O)Nc2ccc3c(c2)OC[C@@H](C)N(C(=O)NC(C)C)C[C@@H](C)[C@H](OC)CN(C)C3=O)cc1 | inactive | inactive | inactive
7 | C=CC[n+]1ccccc1/C=N/O | inactive | inactive | inactive
8 | COc1ccc(C#Cc2cnc3c(c2)C(=O)N([C@H](C)CO)C[C@@H](C)[C@H](CN(C)C(=O)CN(C)C)O3)cc1 | inactive | inactive | inactive
9 | CCS(=O)(=O)N1CC[C@]2(CC1)CN([C@@H](CO)c1[nH]c3cc(ccc3c12)OC)S(=O)(=O)c1ccc(cc1)C | inactive | inactive | inactive
10 | Cc1noc(C)c1S(=O)(=O)N(C)C[C@@H]1Oc2ccc(NC(=O)Cn3cnnn3)cc2CC(=O)N([C@H](C)CO)C[C@H]1C | inactive | inactive | inactive
11 | C[C@H](CO)N1C[C@H](C)[C@H](CN(C)S(C)(=O)=O)Oc2ccc(NC(=O)c3ccncc3)cc2CC1=O | inactive | inactive | inactive
12 | O=C1Nc2ccccc2Oc2cc(Sc3ccccc3)ccc21 | inactive | inactive | inactive
13 | O=C1NC(=O)C2(CCCC2)N1 | inactive | inactive | inactive
14 | CC(C)NC(=O)N(C)C[C@@H]1OCCCC[C@H](C)Oc2ccc(NC(=O)C3CCCCC3)cc2C(=O)N([C@H](C)CO)C[C@@H]1C | inactive | inactive | inactive
15 | C[C@@H]1CCCCO[C@@H](CN(C)Cc2ccc(Cl)c(Cl)c2)[C@@H](C)CN([C@@H](C)CO)C(=O)c2cc(NC(=O)Nc3ccc(F)cc3)ccc2O1 | inactive | active | inactive
16 | C[C@H]1CN([C@@H](C)CO)S(=O)(=O)c2ccc(-c3ccncc3)cc2O[C@H]1CN(C)C(=O)c1cccc(F)c1 | inactive | inactive | inactive
17 | C[C@H](CO)N1C[C@H](C)[C@H](CN(C)S(=O)(=O)c2ccc(Cl)cc2)OCCCC[C@H](C)Oc2ccc(NC(=O)c3ccccc3)cc2C1=O | inactive | inactive | inactive
18 | C[C@H](CO)N1C[C@H](C)[C@H](CN(C)S(=O)(=O)c2cn(C)cn2)OCc2ccccc2-c2c(n(C)c3ccccc23)C1=O | inactive | inactive | inactive
19 | COCCOC(=O)N1C(=O)[C@@]2(c3ccccc31)[C@H](c1ccccc1OCCO)N1[C@H](c3ccccc3)[C@H](c3ccccc3)OC(=O)[C@H]1[C@@H]2C(=O)Nc1nc2ccccc2s1 | inactive | inactive | inactive

Row | Structure (SMILES) | cytotoxicity call (HSkMC) | cytotoxicity call (HepG2) | growth inhibition call (S. aureus RN4220)
20 | Cc1ccccc1-c1cc(N2CCN(C)CC2)ncc1N(C)C(=O)C(C)(C)c1cc(C(F)(F)F)cc(C(F)(F)F)c1 | inactive | inactive | active
21 | Cn1nc(C2CC2)cc1N | inactive | inactive | inactive
22 | CC(C)NC(=O)N(C)C[C@H]1OCCCC[C@H](C)Oc2ccc(NC(=O)Nc3ccccc3)cc2C(=O)N([C@@H](C)CO)C[C@H]1C | inactive | inactive | inactive
23 | COc1ccc(CN(C)C[C@H]2Oc3c(NS(=O)(=O)c4cn(C)cn4)cccc3C(=O)N([C@@H](C)CO)C[C@@H]2C)cc1 | inactive | inactive | inactive
24 | Cc1noc(C)c1S(=O)(=O)N(C)C[C@H]1Oc2ccc(NS(=O)(=O)c3ccc(F)cc3)cc2CC(=O)N([C@H](C)CO)C[C@@H]1C | inactive | inactive | inactive
25 | COc1ccc(S(=O)(=O)Nc2ccc3c(c2)CC(=O)N([C@H](C)CO)C[C@@H](C)[C@H](CN(C)C(=O)Nc2c(C)noc2C)O3)cc1 | inactive | inactive | inactive
26 | C[C@@H]1CCCCO[C@@H](CN(C)C(=O)CCC(F)(F)F)[C@@H](C)CN([C@@H](C)CO)C(=O)c2cc(NC(=O)Nc3ccccc3)ccc2O1 | inactive | inactive | inactive
27 | O=C(O)c1cnn2c1CCCC2 | inactive | inactive | inactive
28 | C[C@H]1CN([C@@H](C)CO)C(=O)c2cc(NS(C)(=O)=O)ccc2O[C@@H]1CN(C)S(=O)(=O)c1cn(C)cn1 | inactive | inactive | inactive
29 | C[C@H](CO)N1C[C@H](C)[C@@H](CN(C)C(=O)Nc2ccc(F)cc2)OCCCC[C@H](C)Oc2ccc(NS(=O)(=O)c3cccs3)cc2C1=O | inactive | inactive | inactive
30 | CC(C)NC(=O)[C@@]1(C)c2ccccc2C(=O)N(Cc2cc(C(F)(F)F)cc(C(F)(F)F)c2)[C@H]1c1ccc(CO)cc1 | inactive | inactive | inactive
31 | COc1ccc(S(=O)(=O)Nc2cccc3c2O[C@@H](CN(C)S(=O)(=O)c2ccccc2)[C@H](C)CN([C@@H](C)CO)C3=O)cc1 | inactive | inactive | inactive
32 | CCCc1cc(=O)nc(SCC(N)=O)[nH]1 | inactive | inactive | inactive
33 | O=C(C1CCCCC1)N1CC(=O)N2CCc3ccccc3C2C1 (stereo unspecified) | inactive | inactive | inactive
34 | CCCCc1cn(C[C@H](Cc2ccccc2)NC(=O)N[C@H](CO)CCc2oc(C(C)=O)c(C(=O)OC)c2C(=O)OC)nn1 | inactive | inactive | inactive
35 | COc1ccc(S(=O)(=O)Nc2cccc3c2O[C@H](CN(C)Cc2ccncc2)[C@H](C)CN([C@@H](C)CO)C3=O)cc1 | inactive | inactive | inactive
36 | CNC(=C[N+](=O)[O-])NCCSCc1ccc(CN(C)C)o1.Cl | inactive | inactive | inactive
37 | C[C@@H]1CN([C@@H](C)CO)C(=O)Cc2cc(NC(=O)Nc3ccccc3)ccc2O[C@H]1CN(C)S(=O)(=O)c1cn(C)cn1 | inactive | inactive | inactive
38 | CO[C@@H]1CN(C)C(=O)c2ccc(NS(=O)(=O)c3cn(C)cn3)cc2OC[C@@H](C)N(CC2CC2)C[C@@H]1C | inactive | inactive | inactive

Row | Structure (SMILES) | cytotoxicity call (HSkMC) | cytotoxicity call (HepG2) | growth inhibition call (S. aureus RN4220)
39 | Cc1ccc(S(=O)(=O)Nc2ccc3c(c2)CC(=O)N([C@@H](C)CO)C[C@H](C)[C@H](CN(C)S(=O)(=O)c2ccccc2)O3)cc1 | inactive | inactive | inactive
40 | C[C@@H]1CN([C@@H](C)CO)C(=O)c2cc(NS(=O)(=O)c3ccc(F)cc3)ccc2O[C@H]1CN(C)Cc1ccc(Oc2ccccc2)cc1 | inactive | inactive | inactive
41 | C[C@H]1CN([C@@H](C)CO)C(=O)Cc2cc(NC(=O)CCN3CCOCC3)ccc2O[C@H]1CN(C)C(=O)Nc1ccc(F)cc1 | inactive | inactive | inactive
42 | COC(=O)C[C@@H]1CC[C@H]2[C@@H](COC[C@@H](O)CN2S(=O)(=O)c2cn(C)cn2)O1 | inactive | inactive | inactive
43 | C=CC(=O)c1ccc2ccccc2c1 | inactive | inactive | inactive
44 | CC(O)C(=O)[O-].[NH4+] (stereo unspecified) | inactive | inactive | inactive
45 | Cc1noc(C)c1NC(=O)Nc1ccc2c(c1)C(=O)N([C@H](C)CO)C[C@H](C)[C@H](CN(C)C(=O)c1ccccc1)OCCCC[C@H](C)O2 | inactive | inactive | inactive
46 | C[C@@H]1CCCCO[C@@H](CN(C)S(=O)(=O)c2ccccc2)[C@@H](C)CN([C@@H](C)CO)C(=O)c2cc(NC(=O)Nc3cccc4ccccc34)ccc2O1 | inactive | inactive | inactive
47 | C[C@@H]1CN([C@H](C)CO)C(=O)c2cc(NS(=O)(=O)c3ccc(Cl)cc3)ccc2O[C@@H](C)CCCCO[C@H]1CN(C)C(=O)Nc1ccc(F)cc1 | inactive | active | inactive
48 | CO[C@H]1CN(C)C(=O)c2ccc(NS(C)(=O)=O)cc2OC[C@@H](C)N(C(=O)CN(C)C)C[C@H]1C | inactive | inactive | inactive
49 | CCCC(NC(C)C(=O)N1C(C(=O)O)CC2CCCCC21)C(=O)O (stereo unspecified) | inactive | inactive | inactive
50 | C[C@@H]1CN([C@@H](C)CO)C(=O)c2cccc(NS(=O)(=O)c3ccc(F)cc3)c2O[C@@H]1CN(C)Cc1ccc(Oc2ccccc2)cc1 | inactive | active | inactive
51 | Cc1ccc(S(=O)(=O)N(C)C[C@@H]2Oc3c(NC(=O)C4CC4)cccc3C(=O)N([C@@H](C)CO)C[C@H]2C)cc1 | inactive | inactive | inactive
52 | C[C@H]1CCCCO[C@@H](CN(C)C(=O)Nc2ccc(C(F)(F)F)cc2)[C@@H](C)CN([C@@H](C)CO)C(=O)c2cc(NC(=O)C3CCCCC3)ccc2O1 | inactive | inactive | inactive
53 | O=C(C[C@@H]1CC[C@@H]2[C@H](COC[C@@H](O)CN2C(=O)c2cccnc2)O1)NCc1ccc(-c2ccccc2)cc1 | inactive | inactive | inactive
54 | O=C1O[C@@H](c2ccccc2)[C@@H](c2ccccc2)N2[C@@H](c3ccc(OCCO)cc3)[C@]3(C(=O)Nc4ccc(C#CC5=CCCCC5)cc43)[C@@H](C(=O)N3CCCCCCC3)[C@H]12 | inactive | active | inactive
55 | CNC[C@@H]1OCCCC[C@@H](C)Oc2ccc(NC(=O)Nc3cccc4ccccc34)cc2C(=O)N([C@H](C)CO)C[C@H]1C | inactive | inactive | inactive
56 | COCC(=O)N1CC[C@]2(CC1)CN(Cc1cccc(c1)OC)[C@@H](CO)c1c2c2ccc(cc2n1C)OC | inactive | inactive | inactive
57 | COCC(=O)Nc1ccc2c(c1)C(=O)N(C)C[C@@H](OC)[C@H](C)CN(Cc1cccc(F)c1)[C@H](C)CO2 | inactive | inactive | inactive
